In PubChem BioAssay AID504832 (National Center for Advancing Translational Sciences (NCATS), 2011):
Out of some 310,000 compounds screened, about 18,000 (5.8%) were called active. Inconclusive means that the source gave no clear call. Such entries were picked first, then a sample of the others. Calls come from the whole dose curve; as a rule, active = well fitted inhibition curve with a large enough effect; inconclusive = small, poorly fitted or top-dose-only effect, or another doubt; inactive = no such curve, though single readings can be large or run the other way. Potencies of inconclusive entries are left out as doubtful fits.

assay: Primary qHTS for delayed death inhibitors of the malarial parasite plastid, 48 hour incubation; settings: P. falciparum luciferase growth in erythrocytes; series mostly up to 28.7 µM
Outline: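 Luciferase-expressing parasites in RBCs, 2% Hct / 0.1% parasitemia final; RPMI 1640 + 0.5% Albumax; 37 C, 5% CO2, one generation; luminescence read-out, lower signal = inhibition.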
Potency is the fitted concentration of half-maximal effect; tags give direction and shape of the fitted curve.

Question: Which Potency does the source give for `CCCCc1cc(=O)oc2cc(C)cc(OCC(=O)N3CCC(C(N)=O)CC3)c12` here?
Answer: The Potency was inconclusive [inhibitor, single point].

Question: Which Potency does the source give for `Cn1c(SCC(=O)Nc2ccc3c(c2)n(C)c(=O)n3C)nnc1-c1ccncc1` here?
Answer: The Potency was inconclusive [inhibitor, full curve, poor fit].

Question: For `Cn1c(CN2CCOCC2)nnc1SCC(=O)Nc1nccs1`, which Potency is on record?
Answer: Its Potency is “inactive”.

Question: Which Potency does the source give for `O=C(CCCCCN1C(=O)c2ccccc2C1=O)Nc1ccc(F)cc1` here?
Answer: Its Potency is “inactive”.

Question: With `CCCCCCCCCCCCCC[n+]1ccc(C)cc1` as the compound, how does the Potency read?
Answer: The Potency was active: 0.849 µM.

Question: For `O=C(CSc1n[nH]c(-c2cccs2)n1)N1CCCCC1`, which Potency is on record?
Answer: Its Potency is “inactive”.

Question: Which Potency does the source give for `O=C(c1cc(-c2cccs2)nn1-c1ccccc1)N1CCN(S(=O)(=O)c2ccccc2)CC1` here?
Answer: The Potency was active: 10.4 µM.

Question: For `COc1cc(C(=O)NNC(=O)COc2ccc(C)cc2)ccc1OCC(=O)N1CCOCC1`, which Potency is on record?
Answer: Its Potency is “inactive”.

Question: Which Potency does the source give for `CN1C[C@@H]2C[C@H]1CN2c1cc2c(cc1F)c(=O)c(C(=O)O)cn2C1CC1` here?
Answer: Its Potency is active: 5.36 µM.

Question: Which Potency does the source give for `COc1ccccc1N(C)S(=O)(=O)c1ccc(C(=O)NNC(=O)c2ccccc2O)cc1` here?
Answer: The Potency was inconclusive [inhibitor, partial curve, poor fit].

Question: Which Potency does the source give for `CC(=O)Nc1ccc(C(=O)N(C2=NC(C)CS2)c2ccc(Cl)cc2)cc1` (stereo unspecified) here?
Answer: The Potency was “inactive”.

Question: With `N[C@@H](Cc1c[nH]c2ccc(O)cc12)C(=O)O` as the compound, how does the Potency read?
Answer: The Potency was “inactive”.

Question: Which Potency does the source give for `COc1ccc(S(=O)(=O)N2CCCC2CNC(=O)C(=O)NC2CCCCCC2)cc1` (stereo unspecified) here?
Answer: Its Potency is inconclusive [inhibitor, single point].

Question: For `O=C(NC1CCN(Cc2ccccc2)CC1)C1CCCN(c2nnc(-n3cccc3)s2)C1` (stereo unspecified), which Potency is on record?
Answer: The Potency was inconclusive [inhibitor, single point].

Question: Which Potency does the source give for `COc1ccc(CNc2ccc(Cl)cc2)cc1Cn1ccnc1` here?
Answer: The Potency was inconclusive [inhibitor, single point].

Question: Which Potency does the source give for `CCCCNC(=O)c1onc(CSc2ccccc2CC)c1C(=O)O` here?
Answer: The Potency was inconclusive [inhibitor, single point].

Question: Which Potency does the source give for `C/C(=N\Nc1nc(C)cc(C)n1)c1ccc(N2CCOCC2)cc1` here?
Answer: Its Potency is inconclusive [inhibitor, single point].

Question: Which Potency does the source give for `O=C(Cc1c(O)c2ccccc2[nH]c1=O)NCc1ccccc1` here?
Answer: Its Potency is “inactive”.

Question: Which Potency does the source give for `CCCn1c(N)c(N(CCOC)C(=O)c2ccc(N(C)S(=O)(=O)c3ccc(C)cc3)cc2)c(=O)[nH]c1=O` here?
Answer: The Potency was inconclusive [inhibitor, full curve].

Question: For `Cc1cc(/C=C2/C(=O)N(C)C(=S)N2C)c(C)n1C1CC1`, which Potency is on record?
Answer: Its Potency is inconclusive [inhibitor, single point].

Question: With `CCc1nc(NCC2CCCO2)c2oc3ccccc3c2n1` (stereo unspecified) as the compound, how does the Potency read?
Answer: The Potency was inconclusive [inhibitor, single point].

Question: Which Potency does the source give for `COC(=O)CNC(=O)c1cccc(-c2ccc(OC)cc2)c1` here?
Answer: The Potency was “inactive”.

Question: With `CCCn1c(NCc2ccc(C)o2)nc2ccccc21` as the compound, how does the Potency read?
Answer: Its Potency is inconclusive [inhibitor, single point].

Question: With `N#CC1=C(N)SC(N)=C(C#N)C1c1ccc([N+](=O)[O-])cc1` as the compound, how does the Potency read?
Answer: Its Potency is inconclusive [inhibitor, single point].

Question: With `Cc1cc(-c2ccc(C(C)C)c(S(=O)(=O)N3CCOc4ccccc43)c2)on1` as the compound, how does the Potency read?
Answer: Its Potency is active: 14.7 µM.

Question: Which Potency does the source give for `Cc1cccc(NC(=O)c2cc3c(=O)n4ccccc4nc3s2)c1` here?
Answer: Its Potency is “inactive”.

Question: Which Potency does the source give for `O=C(CSc1ccccc1C(=O)NCc1ccccc1)NC12CC3CC(CC(C3)C1)C2` here?
Answer: Its Potency is inconclusive [inhibitor, partial curve].

Question: For `N#C/C(=C\N1CCCCC1)S(=O)(=O)c1ccc(Cl)cc1`, which Potency is on record?
Answer: Its Potency is “inactive”.

Question: Which Potency does the source give for `Cc1ccccc1Cn1c(=N)n(CC(=O)c2ccco2)c2ccccc21` here?
Answer: The Potency was inconclusive [inhibitor, single point].

Question: Which Potency does the source give for `NNc1nc(NCc2ccccc2)nc(N2CCOCC2)n1` here?
Answer: Its Potency is inconclusive [inhibitor, partial curve, poor fit].

Question: Which Potency does the source give for `COc1ccc(CC2(C)OC(c3ccc([N+](=O)[O-])cc3)=NN2C(C)=O)cc1` (stereo unspecified) here?
Answer: The Potency was active: 9.28 µM.

Question: Which Potency does the source give for `O=C(Nc1ccc(Cl)c(C(=O)N2CCOCC2)c1)c1ccccc1` here?
Answer: Its Potency is inconclusive [inhibitor, partial curve, poor fit].

Question: Which Potency does the source give for `CCC(=O)N1CCC(c2ccc(OC)cc2)=N1` here?
Answer: Its Potency is “inactive”.

Question: For `CC(C)(C)c1ncc(S(=O)(=O)c2ccc(C(F)(F)F)cn2)c(N)n1`, which Potency is on record?
Answer: Its Potency is inconclusive [inhibitor, single point].

Question: With `COCCC(=O)N1CCC(Oc2ccc(C(=O)NC3CCCCC3)cc2)CC1` as the compound, how does the Potency read?
Answer: Its Potency is “inactive”.

Question: With `O=C(O)Cc1nn(Cc2ccc(Br)cc2F)c(=O)c2ccccc12` as the compound, how does the Potency read?
Answer: Its Potency is “inactive”.

Question: With `Cc1cccc(C)c1NC(=O)CNC(=O)C1CC(=O)N(Cc2ccccc2)C1` (stereo unspecified) as the compound, how does the Potency read?
Answer: The Potency was “inactive”.

Question: For `COc1ccc(CCNC(=O)c2cc(C3CC3)nc3c2cnn3C(C)C)cc1OC`, which Potency is on record?
Answer: The Potency was inconclusive [inhibitor, partial curve].

Question: Which Potency does the source give for `Cc1ccc(S(=O)(=O)N2CCC(Oc3cccc(C(F)(F)F)c3)CC2)cc1` here?
Answer: Its Potency is “inactive”.

Question: With `N#CCC(=O)Nc1ccc(C(=O)OCC(=O)NCc2ccc3c(c2)OCO3)cc1` as the compound, how does the Potency read?
Answer: Its Potency is active: 8.28 µM.

Question: For `Cc1cc2oc(=O)cc(CN3CCOCC3)c2c(C)c1Cl`, which Potency is on record?
Answer: The Potency was “inactive”.

Question: With `CC1(C)Cc2c(c(N3CCOCC3)nc3sc(C(=O)Nc4ccc(Cl)cc4)c(N)c23)CO1` as the compound, how does the Potency read?
Answer: The Potency was inconclusive [inhibitor, partial curve].

Question: With `CCN1CCN(c2ccc(S(=O)(=O)N3CCOCC3)cc2NC(=O)c2ccccc2SC)CC1` as the compound, how does the Potency read?
Answer: The Potency was inconclusive [inhibitor, partial curve, poor fit].

Question: With `Cc1cc(C)nc(N/N=C/C2=C(O)CC(c3ccccc3)CC2=O)n1` (stereo unspecified) as the compound, how does the Potency read?
Answer: The Potency was inconclusive [inhibitor, single point].

Question: With `COc1ccc(CCNC(=O)CCC(=O)N2CC(C)Oc3ccc(Cl)cc32)cc1OC` (stereo unspecified) as the compound, how does the Potency read?
Answer: The Potency was inconclusive [inhibitor, partial curve, poor fit].

Question: Which Potency does the source give for `NC(=O)c1cc(-c2ccccc2)nc(N2CCOCC2)n1` here?
Answer: Its Potency is inconclusive [inhibitor, single point].

Question: With `CCCCc1cc(=O)oc2cc(C)cc(OC(C)C(=O)NCC3CCC(C(=O)O)CC3)c12` (stereo unspecified) as the compound, how does the Potency read?
Answer: The Potency was inconclusive [inhibitor, single point].

Question: Which Potency does the source give for `CCC1=C(OC(=O)N(CC)CC)N2C(=O)OC(=NCC3CC3)[C@]2(Cc2ccccc2)[C@H]2C1=CC[C@H]1C(=O)N(CC)C(=O)[C@H]12` here?
Answer: Its Potency is active: 7.38 µM.

Question: For `COc1ccc(Nc2nc(-c3ccc4c(c3)NC(=O)CO4)cs2)cc1`, which Potency is on record?
Answer: The Potency was inconclusive [inhibitor, single point].

Question: With `COc1cc(C(=O)Nc2ccc(C(=O)NCC3CCCO3)cc2)cc(OC)c1OC` (stereo unspecified) as the compound, how does the Potency read?
Answer: Its Potency is inconclusive [inhibitor, partial curve, poor fit].

Question: For `O=C(NC(NC(=S)Nc1cc(Cl)ccc1Cl)C(Cl)(Cl)Cl)c1ccco1` (stereo unspecified), which Potency is on record?
Answer: The Potency was inconclusive [inhibitor, single point].

Question: With `O=C1COc2ccc(S(=O)(=O)Nc3ccc(F)cc3)cc2N1` as the compound, how does the Potency read?
Answer: The Potency was “inactive”.

Question: For `Cc1cccc(OCCCC(=O)Nc2ccc(N(C)C)cc2)c1`, which Potency is on record?
Answer: The Potency was “inactive”.

Question: For `CC(C)(C)NC(=S)NCC1CC1`, which Potency is on record?
Answer: Its Potency is “inactive”.

Question: Which Potency does the source give for `O=C(CN1CCc2ccccc2C1)Nc1cc(S(=O)(=O)N2CCOCC2)ccc1N1CCOCC1` here?
Answer: Its Potency is inconclusive [inhibitor, full curve, poor fit].

Question: With `Cc1cc(=O)oc(C)c1C(=O)NCCCN1CCN(c2ccc(F)cc2)CC1` as the compound, how does the Potency read?
Answer: The Potency was inconclusive [inhibitor, full curve, poor fit].

Question: With `O=C(CCC(=O)Nc1ccccc1)N/N=C/c1ccco1` as the compound, how does the Potency read?
Answer: The Potency was “inactive”.

Question: For `COc1ccc(C(=O)OCC(=O)NC2CCCCCC2)cc1OC`, which Potency is on record?
Answer: The Potency was inconclusive [inhibitor, partial curve, poor fit].

Question: Which Potency does the source give for `CCOC(CCNC(=O)c1cc2c(=O)[nH]c3ccccc3c2s1)OCC` here?
Answer: Its Potency is “inactive”.

Question: For `Cn1c(C(=O)OC(C(=O)NC2CCCC2)c2ccncc2)cc2sccc21` (stereo unspecified), which Potency is on record?
Answer: Its Potency is inconclusive [inhibitor, full curve, poor fit].

Question: For `CCC(C)NS(=O)(=O)c1ccc(OCC(=O)Nc2ccc3c(c2)OCCO3)cc1` (stereo unspecified), which Potency is on record?
Answer: The Potency was inconclusive [inhibitor, full curve, poor fit].

Question: Which Potency does the source give for `O=C(NC1CCCCC1)NC1CC2CCC(C1)N2C(=O)NC1CCCCC1` (stereo unspecified) here?
Answer: The Potency was inconclusive [inhibitor, full curve, poor fit].

Question: Which Potency does the source give for `CCNc1ccc(Br)cc(C(=O)/C=C/c2ccc(Cl)cc2Cl)c1=O` here?
Answer: The Potency was inconclusive [inhibitor, single point].

Question: Which Potency does the source give for `CCN(C(=O)CN1C(=O)S/C(=C\c2cccc(Cl)c2)C1=O)C1CCS(=O)(=O)C1` (stereo unspecified) here?
Answer: Its Potency is inconclusive [inhibitor, partial curve].

Question: For `CC(OC(=O)c1ccc(S(=O)(=O)NCc2ccco2)cc1)C(=O)Nc1ncc(Cl)cc1Cl` (stereo unspecified), which Potency is on record?
Answer: The Potency was “inactive”.

Question: For `CCO[C@@H]1OC(C(=O)NCc2ccccc2)=C[C@H](C(C)(C)C)[C@H]1CCCO`, which Potency is on record?
Answer: Its Potency is inconclusive [inhibitor, single point].

Question: Which Potency does the source give for `COc1ccccc1N1CCN(C(c2cccs2)C(C)NS(=O)(=O)c2ccccc2)CC1` (stereo unspecified) here?
Answer: Its Potency is inconclusive [inhibitor, partial curve].

Question: For `OCCC1CN(Cc2nc(-c3ccccc3)cs2)CCN1C1CCCC1` (stereo unspecified), which Potency is on record?
Answer: Its Potency is inconclusive [inhibitor, single point].

Question: Which Potency does the source give for `Cc1ccc(C(NC(=O)N2CCOCC2)C(Cl)(Cl)Cl)cc1F` (stereo unspecified) here?
Answer: Its Potency is inconclusive [inhibitor, single point].

Question: With `CNC(=S)N/N=C(\C)c1ccc2c(c1)OCO2` as the compound, how does the Potency read?
Answer: Its Potency is “inactive”.

Question: Which Potency does the source give for `O=C(NCc1cccc(Cl)c1)c1cccnc1` here?
Answer: The Potency was inconclusive [inhibitor, partial curve, poor fit].
